Out of some 310,000 compounds screened, about 2,200 (0.71%) showed an effect of 50% or more. The effect is printed as a negative number. The list shows a part of the results.
biological target: human ether-à-go-go-related gene (hERG) potassium channel (human, UniProt Q12809); assay: primary screen, population patch clamp on CHO cells stably expressing hERG
Sequence (Q12809 whole entry, looked up): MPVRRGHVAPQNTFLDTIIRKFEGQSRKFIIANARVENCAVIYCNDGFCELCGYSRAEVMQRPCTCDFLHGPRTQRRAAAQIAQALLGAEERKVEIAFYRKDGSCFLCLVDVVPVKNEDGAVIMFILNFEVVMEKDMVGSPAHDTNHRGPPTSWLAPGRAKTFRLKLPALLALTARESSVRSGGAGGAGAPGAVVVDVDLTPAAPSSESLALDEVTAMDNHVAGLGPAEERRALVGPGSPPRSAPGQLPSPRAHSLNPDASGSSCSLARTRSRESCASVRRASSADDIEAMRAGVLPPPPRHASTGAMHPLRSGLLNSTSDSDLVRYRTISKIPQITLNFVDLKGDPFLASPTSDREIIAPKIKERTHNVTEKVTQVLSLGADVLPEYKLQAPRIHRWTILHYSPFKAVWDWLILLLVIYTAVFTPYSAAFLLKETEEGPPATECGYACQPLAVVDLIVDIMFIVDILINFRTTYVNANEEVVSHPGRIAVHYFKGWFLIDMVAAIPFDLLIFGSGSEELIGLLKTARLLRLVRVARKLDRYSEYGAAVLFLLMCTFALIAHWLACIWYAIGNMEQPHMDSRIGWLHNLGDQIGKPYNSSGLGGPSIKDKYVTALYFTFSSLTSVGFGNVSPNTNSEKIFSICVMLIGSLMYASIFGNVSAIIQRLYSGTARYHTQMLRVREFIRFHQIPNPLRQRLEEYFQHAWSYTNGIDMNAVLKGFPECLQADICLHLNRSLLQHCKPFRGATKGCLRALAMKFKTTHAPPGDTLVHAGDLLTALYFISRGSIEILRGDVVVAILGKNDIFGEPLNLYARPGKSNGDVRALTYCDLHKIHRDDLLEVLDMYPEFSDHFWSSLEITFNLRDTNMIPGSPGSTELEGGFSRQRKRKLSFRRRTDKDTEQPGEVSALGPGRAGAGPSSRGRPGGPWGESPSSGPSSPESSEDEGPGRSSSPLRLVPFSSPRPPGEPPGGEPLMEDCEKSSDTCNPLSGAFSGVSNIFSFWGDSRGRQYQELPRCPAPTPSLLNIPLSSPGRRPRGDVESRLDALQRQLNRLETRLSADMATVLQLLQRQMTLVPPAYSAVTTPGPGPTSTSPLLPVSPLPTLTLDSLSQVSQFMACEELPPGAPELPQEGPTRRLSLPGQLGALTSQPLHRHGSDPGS

Row | Structure (SMILES) | hERG current change (%, negative = inhibition) at 1uM [%]
1 | CCOC(=O)/C(=N\Nc1ccc(OC)cc1)c1csc(Nc2ccccc2)n1 | 10.2
2 | CSc1nc2sc3c(c2c(=O)n1C)CCCC3 | 6.11
3 | CC1(C)Cc2c(sc(NC(=O)C3CC(Cl)=CCC3C(=O)O)c2C#N)CO1 (stereo not shown) | 14.3
4 | COc1ccc(NC(=O)C2CCC(CNS(=O)(=O)c3cccs3)CC2)cc1 (stereo not shown) | 14.2
5 | O=C(NCCCOc1cccc(CN2CCCCC2)c1)c1ccc(Cl)c(Cl)c1.O=C(O)C(=O)O | -1
6 | Cc1cc(NC(=O)C(C)SCC(=O)N(C)CC(=O)Nc2ccccc2Br)no1 (stereo not shown) | 14.6
7 | CC(=O)Nc1ccc(NC(=O)C(Cc2ccccc2)NC(=O)C2CCCCC2)cc1 (stereo not shown) | 10.1
8 | CN(Cc1cnccn1)Cc1c(C(=O)N2CCc3ccccc3C2)nc2ccc(Cl)cn12 | -1.17
9 | COc1ccccc1CCNC(=O)CN1C(=O)NC2(CCCC2)C1=O | -22.4
10 | C=CCOc1ccc(CN(C)C(=O)C2CCCO2)cc1 (stereo not shown) | 10.8
11 | CC(C)(C)n1cnc2cc(NC(=O)c3ccc(Cl)cc3)ccc21 | -9.1
12 | CCOc1ccc(/C=N/Nc2cc(=O)n(C)c(=O)n2C)cc1 | 14.2
13 | CCC(NC(=O)c1ccccc1NC(=O)c1ccco1)C(=O)O (stereo not shown) | 13
14 | Cc1csc(CNc2ncnc3ccc(-c4ccoc4)cc23)c1 | 13.8
15 | CCOC(=O)C1(Cc2ccccc2)NC(c2ccccc2F)C2C(=O)N(CC)C(=O)C21 (stereo not shown) | 7.22
16 | COc1ccc(N2CCN(C(=O)C3CCN(S(=O)(=O)c4ccc(C)cc4)CC3)CC2)cc1 | 3.69
17 | O=C(NCC1CCCO1)c1cc(S(=O)(=O)Nc2ccc(Br)cc2)ccc1Cl (stereo not shown) | 19
18 | CCn1c(/C=C/c2ccccc2Cl)nc2ccccc2c1=O | 14.5
19 | CN(C)CCN(C(=O)C1CCN(S(=O)(=O)c2cccs2)CC1)c1nc2ccccc2s1.Cl | 15.7
20 | CC(C)C(=O)Nc1cccc(C(=O)Nc2nnc(C(C)C)s2)c1 | 14
21 | Nc1ccc2c(c1)-c1ccccc1S(=O)(=O)N2 | 3.37
22 | CCC(=O)NC(=S)Nc1ccc(NC(=S)NC(=O)c2ccc(C)cc2)cc1 | 15.6

Row | Structure (SMILES) | hERG current change (%, negative = inhibition) at 1uM [%]
23 | COc1ccccc1/C=C1\SC(=S)N(CCC(=O)NCCc2ccc(O)cc2)C1=O | 15.9
24 | Cc1ccc(/C=N/N2C(=O)c3ccccc3NC2c2ccc(C)cc2)cc1 (stereo not shown) | 13.4
25 | O=C(CCNC(=O)c1ccco1)Nc1ccc(SC(F)F)cc1 | -15.9
26 | CC(Sc1ccccc1)C(=O)NNC(=O)c1ccncc1 (stereo not shown) | 10.9
27 | CCN1CCN(C(=O)c2ccc(Cn3c(=O)[nH]c4cc(OC)c(OC)cc4c3=O)cc2)CC1 | 7.05
28 | COc1cc2c(cc1OC)CN(C(=O)c1ccc(Br)o1)CC2 | 3.62
29 | O=C(C1CCC(CNc2c(N3CCCCC3)c(=O)c2=O)CC1)N1CCN(C2CCCCC2)CC1 (stereo not shown) | 10.7
30 | CCOc1cc(/C=N\Nc2ncc(F)c(N3CCOCC3)n2)ccc1Oc1nc(Cl)ncc1F | 1.85
31 | CCOC(=O)c1ccc(NC(=S)NCCCn2ccnc2)cc1 | 10.6
32 | COc1cc(C(=O)OCCCc2cc3ccccc3c(=O)o2)cc(OC)c1OC | 6.26
33 | Cc1ccc(CNC(=O)CN2CCN(Cc3ccc(C)cc3)C2=O)cc1 | -4.83
34 | O=C(NCCc1ccc(Cl)cc1)C1CCN(C(=O)c2sccc2-n2cccc2)CC1 | -1.16
35 | Cc1ccc(NC(=O)COC(=O)Cc2cccs2)cc1S(=O)(=O)N1CCOCC1 | 4.46
36 | CCn1c(CNc2ccc(F)cc2)nnc1SCC(=O)Nc1ccccc1OC | -4.63
37 | COc1ccc(CC(=O)n2nc(-c3ccccc3)nc2NCc2ccco2)cc1 | 6.29
38 | Cc1cc2ccc(C)c(C)c2nc1SCC#N | 4.84
39 | O=C(NCc1ccccn1)c1nnc(Cc2ccc(Cl)cc2)o1 | 7.66
40 | CC(=O)c1c(C)[nH]c(C(=O)NCCC2=CCCCC2)c1C | 7.29
41 | COCCCNC(=O)/C(C#N)=C/c1c(N2CCN(c3ccccc3)CC2)nc2c(C)cccn2c1=O | 1.57
42 | Cc1cc(=O)oc2cc(OCC(=O)N3CCC(C(=O)O)(c4ccccc4)CC3)ccc12 | 8.62
43 | O=C(CN1C(=O)C2CCCCC2C1=O)OCn1nnc2ccccc2c1=O (stereo not shown) | 1.7
